# The whole screen tested about 52,000 compounds, of which about 1,700 (3.3%) were called active. No stated cut-off is given here; in the data, active means survival mostly below about 52% (no sharp cut-off); inactive means mostly above about 56%. This is one part of the list.
# System: Wild type
# Assay: growth inhibition of S. aureus wild type versus tarO mutant, primary screen, teichoic acid synthesis inhibitors, RN4220, OD600 (AID 463173)
# Details: S. aureus RN4220 wild type/DeltatarO growth, OD600, 18 h, active compounds read low, screened at 18.75 µg/mL (by protocol)
row,Structure (SMILES),survival
1,CC1(C)c2ssc(=S)c2-c2ccccc2N1C(=O)CSC#N,inactive: 98%
2,Cc1ccc(NC(=O)c2oc3ccc(S(=O)(=O)N4CCCCCC4)cc3c2C)c(C)c1,inactive: 146%
3,COc1ccc(-n2c(C)nnc2SCc2nc(-c3ccc(OC)c(OC)c3)no2)cc1,inactive: 87%
4,COc1ccc(OC)c(NC(=O)Cn2c(=O)n(-c3cccc(C)c3)c(=O)c3c2c2cc(C)ccc2n3C)c1,inactive: 68%
5,Cc1ccc(NC(=O)c2c(NC(=O)c3ccc(F)cc3)sc3c2CCCC3)cc1C,inactive: 80%
6,O=C(c1cc(-c2cccc(Cl)c2)on1)N1CCCCC1,inactive: 66%
7,COc1ccc(NC(=O)c2cc3c(=O)n(Cc4cccs4)ccc3nc2C)cc1,inactive: 59%
8,CCOC(=O)c1cc(OC(=O)c2cc(OC)c(OC)c(OC)c2)n(-c2ccccc2)n1,inactive: 67%
9,CCOC(=O)c1c(C)oc2nc(C)nc(N3CCN(c4cc(Cl)ccc4C)CC3)c12,inactive: 72%
10,COc1cccc(CNC(=O)CCCn2nc(C)c3sc4ccccc4c3c2=O)c1,inactive: 87%
11,CCOc1ccc(-n2c(SCC(=O)Nc3cc(C)on3)nc3c([nH]c4ccccc43)c2=O)cc1,inactive: 69%
12,CCc1ccccc1N(C)C(=O)Cn1cnc2sc(C)c(S(=O)(=O)N3CCC(C)CC3)c2c1=O,inactive: 85%
13,CCOC(=O)c1ccc(NC(=O)CSc2nc(-c3ccc(OC)cc3)cc(C(F)(F)F)c2C#N)cc1,inactive: 130%
14,CCn1cc2nc(SCC(=O)Nc3ccc(OC)c(Cl)c3)n(Cc3ccc(OC)cc3)c(=O)c2n1,inactive: 147%
15,COc1ccc(C)cc1NC(=O)Cn1c(=O)oc2cc(S(=O)(=O)N3CCCCC3)ccc21,inactive: 94%
16,Cc1ccc(Nc2ccc3cc(S(=O)(=O)N4CCCCC4)ccc3n2)cc1F,inactive: 55%
17,COc1ccc(-c2cc3nc(C)c(CCC(=O)NCc4ccccc4Cl)c(C)n3n2)c(OC)c1,inactive: 132%
18,O=C(Cc1ccccc1)N(Cc1cccnc1)c1nc2c(Cl)cccc2s1,inactive: 71%
19,COc1ccc(N(CC(=O)N2CCN(c3ccccc3)CC2)S(=O)(=O)c2c(C)nn(C)c2C)cc1,inactive: 86%
20,COc1cccc(CN(Cc2nnnn2C2CCCCC2)CC2CCCO2)c1 (stereo not drawn),inactive: 123%
21,CC(=O)c1ccc(NC(=O)c2cn(-c3ccccc3)nc2-c2ccc(Br)cc2)cc1,inactive: 78%
22,O=C(CCC1CCCC1)N1CCc2c([nH]c3ccccc23)C1c1ccc(F)cc1 (stereo not drawn),inactive: 73%

row,Structure (SMILES),survival
1,N#Cc1nc(COc2ccccc2Cl)oc1NCCc1ccccc1,inactive: 25%
2,CCOc1ccc(NC(=O)NCCN2CCN(c3cccc(C)c3C)CC2)cc1,inactive: 75%
3,CCc1cccc(C)c1NC(=O)C1CCN(S(=O)(=O)c2c(C)noc2/C=C/c2c(C)cc(C)cc2C)CC1,inactive: 68%
4,CCc1nnc(SC(CC)C(=O)Nc2ccc(OC)c(Cl)c2)c2cc3occc3n12 (stereo not drawn),inactive: 77%
5,CC(C)OCC(O)Cn1c2ccccc2c2ccccc21 (stereo not drawn),inactive: 122%
6,COc1ccccc1NC(=O)c1c(C)cc(C)nc1SCC(=O)Nc1ccc(C)c(C)c1,inactive: 81%
7,COc1cccc(-n2ccn(CC(=O)NCc3ccc(C)cc3)c(=O)c2=O)c1,inactive: 84%
8,Cc1ccc(CCNC(=O)CN(c2cc(C)cc(C)c2)S(=O)(=O)c2c(C)noc2C)cc1,inactive: 127%
9,COc1ccccc1CNC(=O)CCCn1c(=O)c2ccccc2n(Cc2ccc(F)cc2)c1=O,inactive: 135%
10,COc1ccccc1Nc1nc(-c2ccc(F)cc2)c2c(n1)-c1ccccc1OC2,inactive: 86%
11,CCOc1ccc(C2CC(=O)NC(NC(=O)c3cccc(Cl)c3)=N2)cc1 (stereo not drawn),inactive: 69%
12,Cc1cc(C)c(NS(=O)(=O)c2ccc3c(c2)CC(C)N3C(=O)C2CCC2)c(C)c1 (stereo not drawn),inactive: 64%
13,Cc1ccc(NC(=O)Nc2cccc(C)n2)cc1,inactive: 77%
14,CCOC(=O)c1c(C)c(-c2ccccc2)n(CC(=O)Nc2ccc(OCC)cc2)c1C,inactive: 82%
15,COc1ccc(-c2cn3c(n2)sc2cc(C(=O)Nc4cccc(SC)c4)ccc23)cc1,inactive: 90%
16,CCc1ccc(N(CC)C(=O)CCn2cnc3onc(-c4ccc(F)cc4)c3c2=O)cc1,inactive: 90%
17,Nc1n[nH]c(N)c1N=Nc1ccc(Cl)cc1,inactive: 107%
18,Cc1ccc(CSC2=Nc3ccccc3C3=NC(CC(=O)NCc4cccs4)C(=O)N23)c(C)c1 (stereo not drawn),inactive: 68%
19,CCCCNS(=O)(=O)c1ccc(N2CCCCS2(=O)=O)cc1,inactive: 65%
20,O=C(Nc1ccc2nc(SCCOc3ccccc3)sc2c1)c1ccccc1F,inactive: 92%
21,COc1ccccc1-c1noc(-c2ccc(N3CCN(C)CC3)c([N+](=O)[O-])c2)n1,inactive: 110%
22,Cc1ccc(-c2ccc(=O)n(CC(=O)NCCc3ccc(Cl)cc3)n2)cc1,inactive: 73%

row,Structure (SMILES),survival
1,Cc1ccc(Cl)cc1N1CCN(C(=O)C2CCN(S(=O)(=O)Cc3ccccc3)CC2)CC1,inactive: 79%
2,CCCOc1ccc(CNC(=O)c2ccc3c(c2)N(Cc2ccccc2)CCS3)cc1,inactive: 138%
3,COC(=O)C(CCSC)NC(=O)Cn1ncc2c([nH]c3ccccc32)c1=O (stereo not drawn),inactive: 47%
4,COc1cccc2c1cc1c(=O)n(CC(=O)N3CCN(c4cccc(Cl)c4)CC3)nc(C)n12,inactive: 92%
5,Nc1ncnc2c1ncn2CC(O)CO (stereo not drawn),inactive: 111%
6,CNC(=O)c1ccccc1Nc1ccc(SC(F)F)cc1,inactive: 126%
7,O=C(OCc1cc(=O)n2nc(-c3cccs3)sc2n1)c1ccccc1,inactive: 65%
8,CC(=O)n1nc(-c2cccnc2)nc1NCc1ccc(F)cc1,inactive: 83%
9,O=C(c1ccc(Cl)cc1)N1CCC(c2nc3ccccc3o2)CC1,inactive: 81%
10,CCn1cc(C(=O)OCC(=O)Nc2cc(OC)cc(OC)c2)c(=O)c2ccc(C)nc21,inactive: 62%
11,Cc1ccc(CNC(=O)CN2C(=O)CSc3ccc(S(=O)(=O)N(C)C)cc32)cc1,inactive: 95%
12,COCCn1c(SC)nnc1-c1ccccc1,inactive: 127%
13,CCOc1ccc(NC(=O)c2c(NCc3ccc(C)o3)sc3c2CCCCC3)cc1,inactive: 74%
14,Cc1cc(OCC(=O)Nc2c(C(=O)c3ccccc3)oc3ccccc23)cc(C)c1Cl,inactive: 68%
15,CCN1CCN(CCCNC(=O)c2cnn(-c3ccccc3Cl)c2C2CCN(C(=O)OC(C)(C)C)CC2)CC1,inactive: 133%
16,CCOC(=O)C1CCCN(c2c(C(=O)c3ccc(OCC)cc3)cnc3ccccc23)C1 (stereo not drawn),active: 0%
17,CC(C)CN(CCCNC(=O)c1cc(-c2cccs2)nc2ccccc12)CC(C)C,inactive: 61%
18,Cc1nn(C)c2c1c(-c1ccccc1)cc(=O)n2Cc1ccccc1C#N,inactive: 159%
19,Cc1cc(F)ccc1NC(=O)C1CCN(C(=O)c2cnn(-c3ccccc3)c2-n2cccc2)CC1,inactive: 78%
20,O=C(CCC1N=C2c3ccccc3N=C(SCc3cccc(F)c3)N2C1=O)NCCc1ccccc1 (stereo not drawn),inactive: 77%
21,CCCCc1nn2c(=O)cc(COC(=O)c3cccc(Cl)c3)nc2s1,inactive: 76%
22,O=C(c1ccccc1)c1cn(Cc2ccc(F)cc2)c2ccccc2c1=O,inactive: 72%

row,Structure (SMILES),survival
1,Cc1cccc(C)c1NC(=O)Cn1nnc(C(=O)Nc2c(C)cccc2C)c1N,inactive: 89%
2,COC(=O)c1ccccc1NC(=O)c1ccc(-c2nc(COc3ccccc3)c(C)o2)cc1,inactive: 135%
3,Cc1ccc(CNC(=O)CN2C(=O)CSc3c2c(C)nn3-c2ccccc2)cc1,inactive: 68%
4,CN1C(=O)Cc2cc(S(=O)(=O)CCC(=O)Nc3ccc(Cl)c(C(F)(F)F)c3)ccc21,inactive: 77%
5,COCCCn1c(=N)c(C(=O)NCc2cccnc2)cc2c(=O)n3cccc(C)c3nc21,inactive: 74%
6,CCOC(=O)c1c(C)[nH]c(CCC(=O)NCc2cccc(C)c2)c1C,inactive: 84%
7,COc1ccc(NC(=O)c2oc3ccccc3c2NC(=O)Cc2coc3cc(C)ccc23)cc1,inactive: 82%
8,COc1ccc(C)cc1NC(=O)CCNC(=O)Cn1ccc2ccccc2c1=O,inactive: 71%
9,COc1ccc2oc(-c3ccc(C)c(NC(=O)c4ccc5c(c4)OCCO5)c3)nc2c1,inactive: 79%
10,COc1ccc(C2=C(C)C(=NCCCN3CCN(c4cc(Cl)ccc4C)CC3)NS2(=O)=O)cc1,inactive: 24%
11,COc1ccc(-n2ncc(C(=O)Nc3ccc4c(c3)OCO4)c2C2CCN(C(=O)OC(C)(C)C)CC2)cc1,inactive: 100%
12,Cc1ccc(NC(=O)Cn2cc(S(=O)(=O)Cc3cccc(Cl)c3)c3ccccc32)cc1C,inactive: 81%
13,O=C(CCC1N=C2c3ccccc3N=C(SCc3ccccc3F)N2C1=O)NCc1ccccc1 (stereo not drawn),inactive: 73%
14,Cn1c(-c2ccccc2)cnc1NCc1ccccc1O,inactive: 60%
15,N#Cc1nc2c(-c3nc4ccccc4s3)c(N)n(Cc3ccccc3)c2nc1C#N,inactive: 105%
16,O=C(NCc1ccccc1Br)c1ccc2c(c1)nc1n2CCOC1,active: -3%
17,CN(C)S(=O)(=O)c1ccc(S(=O)(=O)N(C)CC2COc3ccccc3O2)cc1 (stereo not drawn),inactive: 98%
18,COCCn1nnnc1C(C(C)C)N1CCN(C(=O)c2ccco2)CC1 (stereo not drawn),inactive: 105%
19,COc1cc(-c2nnc(SCCOc3cc(C)cc(C)c3)o2)cc(OC)c1OC,inactive: 128%
20,COc1ccc(-c2cc3ccc(O)c(CN4CCC(C)CC4)c3oc2=O)cc1OC,inactive: 64%
21,Cc1cccc(Cn2cccc2CNS(=O)(=O)c2ccc(Br)cc2)c1,inactive: 64%
22,Cc1ccccc1CN1C(=O)c2ccccc2S(=O)(=O)c2ccc(C(=O)OCC3CCCO3)cc21 (stereo not drawn),inactive: 68%

# — PubChem BioAssay AID463173 (ICCB-Longwood Screening Facility, Harvard Medical School, 2010)
